Our source for the self-cleavage values is the RNAGym collection of RNA variant scans (doi:10.7554/elife.90254).

The source gives no read counts; variants with many changes may rest on few reads.

First the molecules themselves.
B1: OR4K15 (parent)
chain: GUUAACGGUCAUAGGCCAUGGAAACUAGGAGCACCAUUUCGCUGCCAGUGAAGAAAUGAACAAAGAAAAUCUGGGCCAGGCAGGCAUCAAAAGAAAUAGUCUUGCGCUCAACCAGAAAGUCUGUAAUCAUUUUAAGGGUA

In this data set the parent is B1. The data set is described as follows: self-cleavage, relative activity (ratio to wild type); higher = more cleavage; in vitro, sequencing; the parent is a self-cleaving ribozyme.
With GUUAACGGUCGUAGGCCAUGGAAACUAGGAGCACCAUUUCGCUGCCAGUGAAGAAAUGAACAAAGAAAAUCUGGGCCAGGCAGGCAUCAAAAGAAGUAGUCUUGCGCUCAGCCAGAAAGUCUGUAAUCAUUUUAAGGGUA, the self-cleavage stood at 0.03. As to GUUAACGGUCGUAGGCCAUGGAAACUAGGAGCACCAUUUCGCUGCCAGUGAAGAAAUGAACAAAGAAAAUCUGGGCCAGGCAGGCAUCAGAAGAAAUAGUCUUGCGCUCAACCGGAAAGUCUGUAAUCAUUUUAAGGGUA, the self-cleavage worked out at 0.36. To GUUAACGGUCGUAGGCCAUGGAAACUAGGAGCACCAUUUCGCUGCCAGUGAAGAAAUGAACAAAGAAAAUCUGGGCCAGGCAGGCAUCAGAAGAAAUAGUCUUGCGCUCAACCUGAAAGUCUGUAAUCAUUUUAAGGGUA belongs 0; to GUUAACGGUCGUAGGCCAUGGAAACUAGGAGCACCAUUUCGCUGCCAGUGAAGAAAUGAACAAAGAAAAUCUGGGCCAGGCAGGCAUCAAAAGAGAUAGUCUUGCGCUCAACCAGAAAGUCCGUAAUCAUUUUAAGGGUA, 0.46; to GUUAACGGUCGUAGGCCAUGGAAACUAGGAGCACCAUUUCGCUGCCAGUGAAGAAAUGAACAAAGAAAAUCUGGGCCAGGCAGGCAUCGAUAGAAAUAGUCUUGCGCUCAACCAGAAAGUCUGUAAUCACUUUAAGGGUA, 0.32. As for GUUAACGGUCGUAGGCCAUGGAAACUAGGAGCACCAUUUCGCUGCCAGUGAAGAAAUGAACAAAGAAAAUCUGGGCCAGGCAGGCAUCAAGAGAAAUAGUCUUGCGCUCAACCAGAAGGUCUGUAAUCAUUUUAAGGGUA, the self-cleavage came to 0.78.

Turning to GUUAACGGUCGUAGGCCAUGGAAACUAGGAGCACCAUUUCGCUGCCAGUGAAGAAAUGAACAAAGAAGAUCUGGGCCAGGCAGGCAUCAAAAGAAAUAGUCUUGCGCUCAACCAGAAAGUCUGUAGUCAUUUUAAGGGUA, the self-cleavage was 0.42.

As to GUUAACGGUCGUAGGCCAUGGAAACUAGGAGCACCAUUUCGCUGCCAGUGAAGAAAUGAACAAAGAAAAUCUGGGCCAGGCAGGCAUCGAAAGAAAUAGUCCUGCGCUCAACCAGAAAGUCUGUAAUCAUUUUAAGGGUA, the self-cleavage was determined as 1.56.

GUUAACGGUCGUAGGCCAUGGAAACUAGGAGCACCAUUUCGCUGCCAGUGAAGAAAUGAACAAAGAAAAUCUGGGCCAGGCAGGCAUCGAAAGAAAUAGUCAUGCGCUCAACCAGAAAGUCUGUAAUCAUUUUAAGGGUA: the self-cleavage turned out to be 0.77. For GUUAACGGUCGUAGGCCAUGGAAACUAGGAGCACCAUUUCGCUGCCAGUGAAGAAAUGAACAAAGAAAAUCUGGGCCAGGCAGGCAUCAAGAGAAAUAGUCCUGCGCUCAACCAGAAAGUCUGUAAUCAUUUUAAGGGUA, the self-cleavage came to 2.27. Regarding GUUAACGGUCGUAGGCCAUGGAAACUAGGAGCACCAUUUCGCUGCCAGUGAAGAAAUGAACAAAGAAUAUCUGGCCCAGGCAGGCUUCAAAAGAAAUAGUCUUGCGCUCAACCAGAAAGUCUGUAAUUACUUUAAGGGUA, the self-cleavage was determined as 0.11. In the case of GUUAACGGUCGUAGGCCAUGGAAACUAGGAGCACCAUUUCGCUGCCAGUGAAGAAAUGAACAAAGAAAGUCUGGGCCAGGCAGGCAUCAAAAGAAAUAGUCCUGCGCUCAACCAGAAAGUCUGUAAUCAUUUCAAGGGUA, the self-cleavage was 1.47.

With GUUAACGGUCGUAGGCCAUGGAAACUAGGAGCACCAUUUCGCUGCCAGUGAAGAAAUGAACAAAGAAAAUCUGGGCCUGGCAGGCAUCAAAAGAAAUAGUCCUGCGCUCAACCAGAAAGUCUGUAAACAUUUUAAGGGUA, the self-cleavage came to 0.88. Consider GUUAACGGUCGUAGGCCAUGGAAACUAGGAGCACCAUUUCGCUGCCAGUGAAGAAAUGAACAAAGAGAAUCUGGGCCAGGCAGGCAUCAAAAGAAAUAGUCUUGCGCUAAACCAGAAAGUCUGUAAUCAUUCUAAGGGUA, for which the self-cleavage amounted to 0.17. For the variant GUUAACGGUCGUAGGCCAUGGAAACUAGGAGCACCAUUUCGCUGCCAGUGAAGAAAUGAACAAAGAAAAUCUGGGCCGGGCAGGCAUCAAAAGAAAUAGUCUUGCGCUCAACCAGAAAGUCUGUAAUCAUUUUAAGGGUG, the self-cleavage was 0.25. For GUUAACGGUCGUAGGCCAUGGAAACUAGGAGCACCAUUUCGCUGCCAGUGAAGAAAUGAACAAAGAAAAUCUGGGCCAGGCUGGCAUCAAAAGAAAUAGUCUUGUGCUCAGCCAGAAAGUCUGUAAUCAUCUUAAGGGUA, the self-cleavage turned out to be 0.

GUUAACGGUCGUAGGCCAUGGAAACUAGGAGCACCAUUUCGCUGCCAGUGAAGAAAUGAACAAAGAAAAUCUGGGCCAGGCAGGCAUCAAAAGAAGUAGUCCUGCGCCCAACCAGUAAGUCAGUAAUCAUUUUAAGGGUA: the self-cleavage was determined as 0. Then GUUAACGGUCGUAGGCCAUGGAAACUAGGAGCACCAUUUCGCUGCCAGUGAAGAAAUGAACAAAGAAAAUCUGGGCCAGGCAGGCAUCAAAGGAACUAGUCUUGCGCUCAACCAGAAGGUCUGUAAUCAUUUUAAGGGUA, with 0.71; and GUUAACGGUCGUAGGCCAUGGAAACUAGGAGCACCAUUUCGCUGCCAGUGAAGAAAUGAACAAAGAAGAUCUGGGCCAGGCAGGCAUCAAAAGAAAUAGUCCUGCGCUCAACCAGAAAGUCUGUGAUCAUUUUAAGGGUA, with 0.32. GUUAACGGUCGUAGGCCAUGGAAACUAGGAGCACCAUUUCGCUGCCAGUGAAGAAAUGAACAAAGAAAAUCUGGGCCAGGCAGGCAUCGAGAGAAAUAGUCUUGCGCUCAACCAGGAAGUCUGUAAUCAUUUUAAGGGUA: the self-cleavage turned out to be 0.36.

Take GUUAACGGUCGUAGGCCAUGGAAACUAGGAGCACCAUUUCGCUGCCAGUGAAGAAAUGAACAAAGAAAAUCUGGGCCAGGCAGGCAUCAAGAGAAAUAGUCUUGCGCUCAACCAGAAAGUCUGUAAACAUUUUAAGGGUA: the self-cleavage was found to be 0.93.
